Test results as given in ChEMBL document CHEMBL4888484, “Replenishing the malaria drug discovery pipeline: Screening and hit evaluation of the MMV Hit Generation Library 1 (HGL1) against asexual blood stage Plasmodium falciparum ,using a nano luciferase reporter read-out” (2022).
In all, about 150,000 compounds went through this assay and about 540 (0.36%) showed an effect of 50% or more. The list shows a part of the results.

What follows are compounds tested on Plasmodium falciparum (assay: Primary screen in NF54 nanoGlo assay, in single point, at 2uM, 72h; a lower Z score goes with more inhibition). Conditions: timepoint 72 hour.
Format: functional, Erythrocyte

| Structure (SMILES) | % Inhibition [%] | Z score |
| --- | --- | --- |
| COC(=O)c1ccc(NC(=O)NCC2(C)OCCCO2)cc1Cl | -5 | 0.55 |
| Cc1cccnc1NCCn1ccnc1-c1ccsc1 | -9 | 1.71 |
| C[C@H](O)CCNC(=O)Nc1nc(-c2cccs2)ns1 | -5 | 0.62 |
| CCC(C(=O)NC1CCN(C2CCOC2)CC1)c1ccccc1 (stereo not drawn) | -21 | 2.3 |
| O=C(N[C@H]1CS(=O)(=O)C[C@@H]1O)c1ccc2nc(-c3ccccc3)cn2c1 | 0 | 0.03 |
| CCc1nc(NCCc2cn3cccnc3n2)c2ccsc2n1 | -2 | 0.3 |
| Cc1cc([C@H](C)NCCc2ccccn2)oc1C | 9 | -1.67 |
| FC(F)(F)Cn1cc2c(n1)[C@@H](Nc1ccc(C(F)(F)F)nn1)CCC2 | -7 | 0.62 |
| Cc1cc(C)n(CC(=O)Nc2ccc(F)cc2F)c(=O)c1-c1nc(-c2ccc3c(c2)OCO3)no1 | -1 | 0.08 |
| CCC[C@@](C)(CNC(=O)C1=CCCC1)NC(=O)C1=CCCC1 | -4 | 0.56 |
| CCC1CN2CCCC2CN1C(=O)Nc1cccc2[nH]ccc12 (stereo not drawn) | 0 | 0.06 |
| Cn1ccnc1-c1ccc(C(=O)NCCc2ncnn2C)cc1 | -8 | 1.5 |
| O=S(=O)(C1COC1)N1CCCCC[C@H]1c1noc(-c2ccccc2)n1 | -8 | 1.19 |
| CCC(=O)N(Cc1c(-c2ccccc2)noc1N1CCOCC1)C1CC1 | 1 | -0.12 |
| COC1CCN(C(=O)C[C@]2(c3ccccc3)CC(=O)N(CCCOc3cccnc3)C2=O)CC1 | 14 | -1.96 |
| COc1ccc(CNC(=O)[C@H]2CCCN(c3nccn4nc(-c5ccc(F)cc5)cc34)C2)cc1OC | 0 | 0.04 |
| CC(=O)N1CCN([C@@H](C)C(=O)N2CCN(c3ccccc3)CC2)CC1 | 3 | -0.37 |
| CC1CCN(C(=O)NCCN2C(=O)CCC2=O)CC1 | -9 | 1.36 |
| O=S(=O)(Nc1nc2ncccn2n1)c1c(Cl)cccc1C(F)(F)F | 5 | -0.66 |
| CCOC(=O)c1cc(NC(=O)Nc2c(C)n(C)n(-c3ccccc3)c2=O)cn1C | 12 | -1.46 |
| CCOc1cc(CNC(=O)C(C)(C)C)ccc1OC | -9 | 1.54 |
| Cc1nc(C)c(S(=O)(=O)Nc2n[nH]c3cc(F)ccc23)s1 | -8 | 0.83 |
| CN(Cc1ccncc1)Cc1c[nH]nc1-c1cccnc1 | -10 | 2.03 |
| Cc1n[nH]c(C)c1[C@@H](C)C(=O)N1CCN(CCC(C)C)CC1 | -10 | 1.6 |
| CC[C@H](C)N(Cc1c(C)nn(-c2cccc(F)c2)c1N1CCN(CC)CC1)C(=O)NC(C)(C)C | 8 | -0.96 |
| CCc1csc(CNC(=O)c2nn(C)cc2Cl)n1 | -7 | 0.77 |
| O=C([C@H]1CC(=O)N(c2ccccc2)C1)N1CCN(C(c2ccccc2)c2ccccc2)CC1 | -10 | 1.16 |

| Structure (SMILES) | % Inhibition [%] | Z score |
| --- | --- | --- |
| COc1nc(N[C@@H](C)Cc2cccc(C)n2)ncc1F | -7 | 0.86 |
| CC(C)Cc1ncc2c(n1)CN(CC(=O)Nc1ccc(C(N)=O)cc1)C2 | -1 | 0.23 |
| CN1C[C@@H](NS(=O)(=O)c2ccccc2C(C)(C)C)CCC1=O | 1 | -0.25 |
| COCC(=O)Nc1cc(C(=O)N(C)CC(C)C)c2c(c1)ncn2CCc1ccccc1 | 7 | -0.86 |
| CC(C)CNC(=O)c1ccc(Cl)cc1Cl | 2 | -0.31 |
| O=C1NC2(CCN(S(=O)(=O)c3ccccc3F)CC2)N=C1c1ccccc1 | -13 | 2.04 |
| O=C(Nc1ccc(OCC2CCCCC2)cc1)N1CC[C@@H](O)C1 | -2 | 0.27 |
| C[C@H]1COc2ccc(CN3CCOCC3)cc2CN1C(=O)COc1ccc(F)cc1 | 0 | -0.01 |
| Cc1ccccc1N1C[C@@H](C(=O)N2CCc3ccccc32)CC1=O | 7 | -0.97 |
| O=C(C[C@@H]1NC(=O)N(CCc2c[nH]c3ccccc23)C1=O)NCc1cccnc1 | 7 | -0.86 |
| O=C(c1cnc2ccccn2c1=O)N1[C@@H]2CC[C@H]1C[C@@H](O)C2 | -7 | 0.83 |
| O=C([C@@H]1CC(F)(F)CN1C(=O)c1cc(F)ccc1Cl)N1CCc2ccccc2C1 | -17 | 2.94 |
| O=C(CC[C@H]1CCCOC1)Nc1cnns1 | 1 | -0.08 |
| CC1(C)CCc2ccccc2[C@H]1Nc1nccn2cnnc12 | -5 | 0.64 |
| O=C(Nc1ccc(-c2nccn2C(F)F)cc1)NC1CC2CCC1O2 (stereo not drawn) | -7 | 0.64 |
| Cc1conc1CN1CCCC[C@H]1C1(CN)CCC1 | -12 | 2.34 |
| Cn1nnc(-c2cccc(NC(=O)CCc3nc4ncccc4[nH]3)c2)n1 | 9 | -1.34 |
| CC(C)(C)OC(=O)N1CCC(CN2CCCC[C@H]2C(N)=O)CC1 | -6 | 0.63 |
| CCOc1cccc(C(C)NCC(=O)N2CC(C)OC(C)C2)c1 (stereo not drawn) | -10 | 1.14 |
| COc1cccc(-c2cn3c(n2)N(C(=O)Cn2ccnc2)CCC3)c1 | -7 | 1.12 |
| Cc1nc(C(C)C)sc1CN[C@H]1CCOC1 | 5 | -0.78 |
| CCN(Cc1noc(C)n1)[C@@H](C(=O)O)c1cc(C)c(OC)c(C)c1 | 18 | -2.33 |
| O=S(=O)(NC1CCCC1Nc1ccccc1)c1ccc(Cl)cc1 (stereo not drawn) | 4 | -0.54 |
| Cc1ccc(Oc2nc(N3CCN(C)CC3)nc3c2CN(S(=O)(=O)c2ccc(F)cc2)CC3)cc1 | -6 | 0.95 |
| Cc1csc(C2CN(C3CCc4ccccc4NC3=O)CCO2)n1 (stereo not drawn) | 9 | -1.24 |
| Cc1n[nH]c(-c2ccc(S(=O)(=O)NC3CCC(C)CC3)o2)c1C (stereo not drawn) | -5 | 0.84 |
| COc1cc2c(cc1OC)[C@H](c1cccnc1)N(Cc1cnn(C)c1)CC2 | -12 | 1.27 |
